# Assay results published in the supplement of paper PMC11417369.
# ± gives the standard deviation of the averaged measurements. Some of the results follow.
# Test system: PfAP2-G AP2 domain (GST-tagged)
# Assay: gcPBM binding intensity (ln(normalized median fluorescence intensity)); higher = stronger DNA binding
# Summary of the method: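 An Agilent 4 × 180k array carrying primer-extended double-stranded 36-bp intergenic genomic probes and negative controls received GST-tagged P. falciparum DNA-binding domains expressed in E. coli, about 25 μg on average, for 1 h. The binding buffer contained 1× PBS, 1% milk, 0.2 mg/ml BSA, 0.5% salmon testes DNA and 0.03% Triton X-100. Binding intensity is the top Masliner-normalised natural-log median intensity across replicate spots of either probe orientation, read after Alexa488 anti-GST antibody staining and a 488 nm scan.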
row,Sequence,gcPBM binding intensity (ln)
1,GATATCAAATATAAATGTACAAATTATATATACATA [XGTACX_site3228],10.7 ± 0.47
2,TTCTTATTTATTTTCTTCTCCTTCCTCAAATTTTTT [GTGCAC_negctrl_site592],9.73 ± 0.11
3,AATTTGTTAATATTTTGTACACATAATATAAAAACA [XGTACX_site2224],11.3 ± 0.89
4,TTTCCCAAGCTTATTACACACAAGTAGAATAAGCTT [CACACA_site1561],9.9 ± 0.18
5,TATATAGGTAAAAAATGTACTTATATTGAATATATT [XGTACX_site4414],11.2 ± 0.71
6,TTTACAATATTAAAATGTACATATAAAATAAATAAA [XGTACX_site8367],11 ± 0.49
7,TTTACAATATAAAATACACACACACTAACATATATT [CACACA_site9231],10.01 ± 0.042
8,TATATAAATGTTATCACACACTCACGTTTGACAAAA [CACACA_site6468],10.1 ± 0.078
9,TTCCTCTTAATATGTGCACACTAAATTATAACCTAA [CACACA_site5751],10.6 ± 0.43
10,GAAGGAAATAATAGTAGTACAAATGGTAAGAAATAT [XGTACX_site5845],11.4 ± 0.88
11,ATACAATAAAATAAGTTTGAATAAAATTAAATATAT [CACACA_negctrl_site877],9.6 ± 0.16
12,TCCTTTTTTAAAAGTTGTACATTATTGTTATTTGTT [XGTACX_site4686],11.4 ± 0.84
13,ATTTATTTCTATAATACACACAAATATCTTAATTAA [CACACA_site7801],9.95 ± 0.2
14,ATGTCATAAATGTACGCACACATACATAAACATATA [CACACA_site4530],11.6 ± 1
15,TTCATTTTAATTTCCAGTACACATATATATACATAT [XGTACX_site558],11.2 ± 0.79
16,ATTATATTTATGTTGGTGCATTATACATGAAATTTA,10.2 ± 0.31
17,AATATAATACAATATTGTACATAATATAAATTAAAA [XGTACX_site4064],10.9 ± 0.62
18,ATATATTAACAAAAGGTGCTTTTGGCAAAGTATAAT,10.2 ± 0.2
19,ATAAAAATGGTGTTAACACACACATATATATATATA [CACACA_site8089],10.3 ± 0.53
20,TTATTTAAATATTGATGTACTCTCCTTATTATAATA [XGTACX_site1240],11.2 ± 0.78
21,TATATGTTATATTGGACACACACAATAAACATTATG [CACACA_site8480],10.7 ± 0.64
22,AAACATAAAGAAAAAAAAAATATATATTTATTTATT [GTGCAC_negctrl_site357],9.56 ± 0.23

row,Sequence,gcPBM binding intensity (ln)
1,GGTAATTATTTTGGTTGTACTCAAATATATAATATT [XGTACX_site291],11.4 ± 0.9
2,TAATATATGTATTGCACACCTATAACCATTATTTCT [CACACA_site1498],10.04 ± 0.021
3,AAAAGCAAGTTCCAGGGTACATATATATGAAAAAAC [XGTACX_site2408],11.1 ± 0.68
4,TACAATTTTTTAAATGCACACAAAAGGAATAAATAA [CACACA_site8075],10.3 ± 0.25
5,ACGTTAAAATATTGGGTGCTAACACAATAAAAATAA,10.2 ± 0.18
6,AAAAATATGTCCATGAAAAGGATAGGCAGGTAATCA [XGTACX_negctrl_site93],10.4 ± 0.24
7,AAATATATTTTACATTGTACATGAATAAACTATAAA [XGTACX_site2080],10.9 ± 0.45
8,AAAAATTAAATAAATTTACACACTAATAATTACATA [CACACA_site8260],9.71 ± 0.12
9,AAGTTTTATTTAAATTGTACTAAAATTTTTATATTA [XGTACX_site7065],11 ± 0.69
10,TATATATAAATATTCAGTACATAGTATTATTAAGTA [XGTACX_site1980],10.8 ± 0.64
11,ATAAAATGAACAAACACACACACATATATATATATA [CACACA_site2402],10.1 ± 0.32
12,TCTTGTTTTCAAATATGTACATAGAATAGACATTTT [XGTACX_site684],11.3 ± 0.72
13,AAATATATAAAATATACACACAGTAATATATATATA [CACACA_site1385],9.655 ± 0.007
14,TTTTTCTTTCTCTATTGTACACATGGAAACACATAA [XGTACX_site4601],11.4 ± 0.92
15,TATTTAAGAATATGAAGTACATATATTATTTAAAAA [XGTACX_site7897],11.3 ± 1
16,CATATAAATAAATACACACACACACGCCTTATAATT [CACACA_site7830],10.2 ± 0.14
17,TATATAGGTATCATTACACACATGTATACTTATTTG [CACACA_site7864],10.4 ± 0.16
18,CCTAAAAAAAAGAAATGATATACATATGTATATATA [GTGCAC_negctrl_site100],9.685 ± 0.064
19,ATATATTGAACATATTGTACATTTTGTTAATATTTT [XGTACX_site7622],10.7 ± 0.43
20,TACAAAAAAAAAAAATAGATAAAATAATAATCAAAT [TGCATGCA_negctrl_site524],9.46 ± 0.23
21,TCTCAAGTTGTTAAAAAATAAAAACAATAAATCTAA [CACACA_negctrl_site165],9.62 ± 0.014
22,CAATTTTTTAAATGCACACAAAAGGAATAAATAAAT [CACACA_site544],10.4 ± 0.2
